Measured values taken from PubChem BioAssay AID504332 (National Center for Advancing Translational Sciences (NCATS), 2011).
Out of some 350,000 compounds screened, about 31,000 (8.9%) were called active. The shares of active, inactive and inconclusive entries below differ from those in the screen. Calls come from the whole dose curve; as a rule, active = well fitted inhibition curve with a large enough effect; inconclusive = small, poorly fitted or top-dose-only effect; inactive = no such curve, though single readings can be large or run the other way. Where the call is inconclusive, the potency comes from a doubtful curve fit.

target: Histone-lysine N-methyltransferase EHMT2 (Homo sapiens) (UniProt Q96KQ7); experiment: qHTS Assay for Inhibitors of Histone Lysine Methyltransferase G9a; conditions: G9a H3K9 monomethylation, AlphaScreen, 2 h; activity, negative = inhibition: at 59 µM (top of the series) unless noted; note: nearly all actives have a fitted effect of over 75% in size
UniProt Q96KQ7, sequence (Q96KQ7 whole entry, looked up): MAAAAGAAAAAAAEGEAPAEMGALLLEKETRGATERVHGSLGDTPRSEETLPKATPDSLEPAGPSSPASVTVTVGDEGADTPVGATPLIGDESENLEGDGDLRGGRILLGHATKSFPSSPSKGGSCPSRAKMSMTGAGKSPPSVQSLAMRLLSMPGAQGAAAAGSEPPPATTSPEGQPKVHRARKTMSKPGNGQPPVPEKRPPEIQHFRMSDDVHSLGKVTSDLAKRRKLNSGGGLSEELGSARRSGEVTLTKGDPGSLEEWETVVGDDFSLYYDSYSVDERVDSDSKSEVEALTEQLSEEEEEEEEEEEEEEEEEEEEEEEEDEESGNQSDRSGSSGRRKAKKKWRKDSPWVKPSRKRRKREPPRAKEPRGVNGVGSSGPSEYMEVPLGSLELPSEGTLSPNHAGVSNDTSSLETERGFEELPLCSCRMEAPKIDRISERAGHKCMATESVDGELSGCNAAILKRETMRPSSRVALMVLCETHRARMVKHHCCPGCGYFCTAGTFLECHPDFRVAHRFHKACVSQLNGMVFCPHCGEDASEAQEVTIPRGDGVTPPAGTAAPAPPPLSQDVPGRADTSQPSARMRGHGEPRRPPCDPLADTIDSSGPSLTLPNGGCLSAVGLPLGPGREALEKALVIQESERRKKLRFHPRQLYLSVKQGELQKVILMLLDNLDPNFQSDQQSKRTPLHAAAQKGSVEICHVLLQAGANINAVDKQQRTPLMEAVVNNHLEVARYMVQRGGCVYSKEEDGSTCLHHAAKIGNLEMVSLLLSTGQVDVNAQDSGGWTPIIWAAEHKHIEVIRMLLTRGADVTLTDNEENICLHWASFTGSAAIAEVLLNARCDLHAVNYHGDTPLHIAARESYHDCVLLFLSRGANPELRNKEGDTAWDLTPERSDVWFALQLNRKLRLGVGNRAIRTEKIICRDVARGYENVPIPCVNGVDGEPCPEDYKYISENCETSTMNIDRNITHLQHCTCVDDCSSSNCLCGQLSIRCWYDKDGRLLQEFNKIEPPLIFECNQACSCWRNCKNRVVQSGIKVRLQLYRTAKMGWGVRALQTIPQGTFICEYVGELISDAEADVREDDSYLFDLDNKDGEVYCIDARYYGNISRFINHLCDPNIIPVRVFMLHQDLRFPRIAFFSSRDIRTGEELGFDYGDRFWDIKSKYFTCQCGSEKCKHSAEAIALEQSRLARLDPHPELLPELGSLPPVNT
How it was run: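 Quantitative HTS format: methyltransferase activity on a biotin-tagged H3K9 peptide is measured by AlphaScreen, using a rabbit anti-monomethyl-H3K9 antibody with streptavidin donor and anti-IgG acceptor beads. Final levels are 20 nM enzyme, 500 nM peptide, 20 uM SAM; 2 h RT.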
% is set by controls: 0 for no effect and ±100 for the full control effect; potency is the fitted concentration of half-maximal effect; tags give direction and shape of the fitted curve.

Compound | Potency | activity, negative = inhibition
COc1ccc(NC(=O)c2ccc3c(c2)N(C)CCS3)cc1 | inconclusive: 39.8 µM [inhibitor, partial curve, poor fit] | 
CCc1nnc2c3ccccc3nc(Nc3ccc(C(C)=O)cc3)n12 |  | inactive: 4.26%
CN(C)CCNC(C(=O)Nc1cccc(S(=O)(=O)N2CCOCC2)c1)c1ccccc1 (stereo not given) | inconclusive: 1.78 µM [inhibitor, partial curve, poor fit] | 
CC(=O)CCc1oc2ccc(NC(C)=O)cc2c1-c1ccc(C)o1 | active: 12.6 µM | 
CCOc1ccc(S(=O)(=O)Nc2cc(SCC(=O)O)c(O)c3ccccc23)cc1 | inconclusive: 1 µM [inhibitor, full curve, poor fit] | 
COC(=O)C1=C(O)/C(=C\c2ccc(CNS(=O)(=O)c3ccccc3)o2)N=C1C | inconclusive: 25.1 µM [inhibitor, single point] | 
CCOC(=O)c1cc(S(=O)(=O)N2CCN(c3ccccc3)CC2)[nH]n1 | inconclusive: 31.6 µM [inhibitor, single point] | 
Cc1ccc(NC(=O)COC(=O)c2ccc(S(=O)(=O)NCc3ccco3)cc2)cc1 |  | inactive: 17% [at 12.7 µM]
O=C(Nc1ccccc1)c1nnsc1S(=O)(=O)c1ccc(Cl)cc1 | inconclusive: 10 µM [inhibitor, partial curve, poor fit] | 
C[C@@H](NC(=O)[C@@H]1Cc2ccccc2CN1C(=O)OC(C)(C)C)C(=O)NC1CCCCC1 | active: 79.4 µM | 
O=C(O)C1C2C=CC(O2)C1C(=O)Nc1ccc2c(c1)OCCO2 (stereo not given) | inconclusive: 25.1 µM [inhibitor, partial curve, poor fit] | 
COc1ccc(C(=O)NCC(c2cccnc2)N2CCc3ccccc32)cc1 (stereo not given) | inconclusive: 35.5 µM [inhibitor, single point] | 
COCCNC(=S)N(CCO)Cc1cc2cc3c(cc2[nH]c1=O)OCO3 | inconclusive: 0.794 µM [inhibitor, single point] | 
CC(C)OCCCNC(=O)c1ccc2c(c1)N(Cc1c(F)cccc1Cl)C(=O)c1ccccc1S2 |  | inactive: -4.78%
COc1ccc(OC)c(C2/C(=C(/O)c3ccc(C)cc3)C(=O)C(=O)N2Cc2ccco2)c1 (stereo not given) | inconclusive: 28.2 µM [inhibitor, single point] | 
O=C(NCC(c1ccco1)N1CCN(c2ccc(F)cc2)CC1)c1ccco1 (stereo not given) | inconclusive: 89.1 µM [inhibitor, partial curve, poor fit] | 
Cc1cc(-n2c(SCC(=O)NCCC3=CCCCC3)nc3n[nH]c(C)c3c2=N)ccc1Cl |  | inactive: 2.76%
COc1cc(OC)c(OC)cc1/C=C/c1nc2cc3ccccc3cc2c(=O)n1-c1ccc(Cl)cc1 | inconclusive: 20 µM [inhibitor, partial curve, poor fit] | 
COc1ccccc1N1CCN(S(=O)(=O)CCNC(=O)c2ccc(Br)o2)CC1 |  | inactive: -8.41% [at 102 µM]
CCN(CC)CCN(C(=O)c1ccc(S(=O)(=O)N(C)C2CCCCC2)cc1)c1nc2ccc(OC)cc2s1 | inconclusive: 63.1 µM [inhibitor, single point] | 
CCS(=O)(=O)N1CCC(C(=O)NC2CCCCC2)CC1 |  | inactive: 10.5% [at 12.7 µM]
CN(N=O)C(=O)N[C@H]1[C@@H](O)[C@H](O)[C@H](CO)O[C@@H]1O |  | inactive: 11.2% [at 21.5 µM]
CCc1ccc(OCc2n[nH]c(=S)n2C(C)CCCC(C)C)cc1 (stereo not given) |  | inactive: 8.37% [at 102 µM]
Cc1ccc(Nc2c(-c3c[nH]c4ccccc34)nc3cc(C)ccn23)cc1 | inconclusive: 8.91 µM [inhibitor, partial curve] | 

Compound | Potency | activity, negative = inhibition
COc1cc(OC)cc(-c2nnc(SCc3cccc(C(=O)O)c3)o2)c1 | inconclusive: 17.8 µM [inhibitor, partial curve, poor fit] | 
CC1(C)CC2(CC(c3ccccc3F)c3cc(Cl)c(O)cc3O2)NC(=S)N1 (stereo not given) | inconclusive: 44.7 µM [inhibitor, partial curve, poor fit] | 
CCOC(=O)C1=C(CS(=O)(=O)c2cccc(C(F)(F)F)c2)NC(=O)NC1c1cccc(OC)c1 (stereo not given) |  | inactive: -39.2%
O=C(COc1ccccc1)N(Cc1ccco1)C1CCS(=O)(=O)C1 (stereo not given) | inconclusive: 56.2 µM [inhibitor, partial curve, poor fit] | 
CCN(CC)CCCn1c2c(c(SCC(=O)Nc3ccc4c(c3)OCO4)nc1=O)CCC2 | inconclusive: 79.4 µM [inhibitor, partial curve, poor fit] | 
O=C(COc1ccc(Cl)cc1Cl)NNC(=S)Nc1ccc(F)cc1 | active: 11.2 µM | 
Cc1ccc(C)n1-c1sc2c(c1C#N)CCC(C)C2 (stereo not given) | inconclusive: 89.1 µM [inhibitor, single point] | 
CC1=C(c2ccc(C)c(C)c2)S(=O)(=O)N(Cc2ccc(C(=O)NCc3cccc(C)c3)cc2)C1=O |  | inactive: -6.22%
COc1ccccc1NC(=O)C1=C(C)Nc2c(C(=O)Nc3ccc(F)cc3)cnn2C1c1cccc([N+](=O)[O-])c1 (stereo not given) |  | inactive: -39.2%
Cc1cccc(OCCCC(=O)Nc2nc3ccccc3[nH]2)c1 |  | inactive: 3.85% [at 102 µM]
O=C1Nc2ccccc2C1=Nc1ccc(S(=O)(=O)Nc2nccs2)cc1 | inconclusive: 89.1 µM [inhibitor, single point] | 
Cc1ccn2c(=O)c(C(=O)O)cnc2c1 |  | inactive: -30.4% [at 102 µM]
CCSc1ccccc1C(=O)N1CCCC1 | inconclusive: 50.1 µM [inhibitor, partial curve, poor fit] | 
Cc1cc(C)c2sc(N(CCCN(C)C)C(=O)c3ccc(Br)s3)nc2c1 | inconclusive: 39.8 µM [inhibitor, full curve] | 
COC(=O)C1(Cc2ccccc2)NC(c2ccccc2C)C2C(=O)N(c3ccc4c(c3)OCO4)C(=O)C21 (stereo not given) | active: 0.794 µM | 
COc1ccc(OC)c(NC(=O)CCN2CCCC(C)C2)c1 (stereo not given) | inconclusive: 89.1 µM [inhibitor, single point] | 
O=C(C1CC1)N1CCc2cc(Br)cc(S(=O)(=O)N3CCN(c4cccc(C(F)(F)F)c4)CC3)c21 | inconclusive: 5.62 µM [inhibitor, partial curve, poor fit] | 
O=C(/C=C/c1ccccc1)Nc1nnc(SCC(=O)c2ccc3ccccc3c2)s1 | inconclusive: 39.8 µM [inhibitor, single point] | 
COc1ccc(CNC(=O)CN2C(=O)NC(Cc3ccccc3)(c3ccccc3)C2=O)cc1OC (stereo not given) | active: 8.91 µM | 
COc1ccccc1CNC(=O)C1CCCN(c2nc3ccccc3n3cccc23)C1 (stereo not given) |  | inactive: -5.82%
O=C(c1ccc2ncsc2c1)N1CCN(c2ccccc2Cl)CC1 |  | inactive: -3.01% [at 102 µM]
Cc1nn(CC(=O)NCc2ccccc2)c(=O)c2cccn12 |  | inactive: 12%
CCN(CC)c1ccc(C2C(C(=O)Nc3ccccn3)=C(C)NC3=C2C(=O)CC(C)(C)C3)cc1 (stereo not given) | inconclusive: 89.1 µM [inhibitor, single point] | 
COC(=O)c1ccccc1NC(=S)N1CCN(C2CCCCC2)CC1 | inconclusive: 28.2 µM [inhibitor, partial curve, poor fit] | 

Compound | Potency | activity, negative = inhibition
c1ccc2nc3c(nc2c1)[nH]c1ccccc13 |  | inactive: -48%
Nc1nc(SCCN2C(=O)c3ccccc3C2=O)n[nH]1 | inconclusive: 89.1 µM [inhibitor, single point] | 
CC(C)OC(=O)CC1C(=O)NCCN1C(=S)NC(=O)c1cccs1 (stereo not given) | active: 44.7 µM | 
O=C1N=C(N2CCc3ccccc3C2)S/C1=C\c1cccc(O)c1 | inconclusive: 1.78 µM [inhibitor, full curve, poor fit] | 
COc1ccc(C(F)(F)F)cc1NC(=O)c1sc2nc(-c3cccs3)ccc2c1N | inconclusive: 2 µM [inhibitor, partial curve, poor fit] | 
COc1ccc(Cl)cc1NC(=S)NC(=O)c1ccco1 |  | inactive: -10.7% [at 12.7 µM]
Cc1noc(/C=C/c2cccs2)c1S(=O)(=O)N1CCC(C(=O)Nc2ccc(F)c(Cl)c2)CC1 |  | inactive: -2.98%
CCOC(=O)C1(Cc2ccc(Cl)cc2)CCN(C(=O)c2cnc(C)cn2)CC1 |  | inactive: 15% [at 102 µM]
O=C(c1ccccc1)N1CCN(c2ccc(NCc3ccc4c(c3)OCO4)cc2)CC1 | active: 5.01 µM | 
Cc1ccc(OCCN(C)C)c([N+](=O)[O-])c1 | inconclusive: 35.5 µM [inhibitor, single point] | 
CC1(c2ccc(Cl)cc2)NC(=O)N(CC(=O)c2ccc3c(c2)OCO3)C1=O (stereo not given) |  | inactive: -7.79% [at 102 µM]
COc1ccc(NC2c3ccccc3C(=O)N2Cc2ccc3c(c2)OCO3)cc1 (stereo not given) | active: 44.7 µM | 
CCCC(=O)OC1(C(=O)CO)CCC2C3CCC4=CC(=O)CCC4(C)C3C(O)CC21C (stereo not given) |  | inactive: 20.5%
Cc1ccc(S(=O)(=O)N2CCOCC2)cc1NC(=O)COC(=O)CCC(=O)c1ccc(F)cc1 |  | inactive: -29.2% [at 102 µM]
c1ccc2oc(SCc3nc4ccccc4s3)nc2c1 |  | inactive: 46.8%
CCOC(=O)c1cnn(-c2ccc(C(=O)Nc3cc(OC)c(OC)c(OC)c3)cc2)c1N | inconclusive: 6.31 µM [inhibitor, single point] | 
COc1ccc(C)cc1NC(=O)CN1CCN(c2ccccc2F)CC1 |  | inactive: -29.9% [at 12.7 µM]
CC(C)C[C@H](CO)Nc1nc(Nc2cccc(Cl)c2)c2ncn(C(C)C)c2n1 |  | inconclusive: -57.5% [inhibitor] [at 12.7 µM]
O=C(Nc1ccccc1C(=O)NC(Cc1ccc(O)cc1)C(=O)O)c1ccccc1 (stereo not given) | active: 44.7 µM | 
Cc1nc(SCC(=O)NCc2ccccc2)c2oc3ccccc3c2n1 |  | inactive: -2.85%
Cc1ccc(C(=O)/C=C/C(=O)c2ccc(C)cc2)cc1 | active: 1.58 µM | 
CC1=C(C(=O)Nc2ccc(Cl)cc2)C(c2ccco2)NC(=O)N1 (stereo not given) | inconclusive: 0.708 µM [inhibitor, full curve, poor fit] | 
